Data as given in the supplement of paper PMC4604168 (melanoma cell lines).
Some of the results follow. Many values rest on one well or one pass, so single values are uncertain.

Tested on: SkMel2
Assay: cell count relative to DMSO control; melanoma cells; higher = more viable cells
Conditions: library dose: standard library concentration; 72 h
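Note: cells treated in 1,536-well plates, then fixed and DAPI-stained, with nuclei counted from automated high-throughput microscope images.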

Row | Compound | cell count [%]
1 | COc1cc2c(Oc3ccc4[nH]c(C)cc4c3F)ncnc2cc1OCCCN1CCCC1 [cediranib] + N#Cc1c(O)c2c(-c3ccc(-c4ccccc4O)cc3)csc2[nH]c1=O [A769662] (first compound 2 µM, partner dose 10 µM) | 88.1
2 | CC(C)(C)c1cnc(CSc2cnc(NC(=O)C3CCNCC3)s2)o1 + CN(C)S(=O)(=O)c1ccc2c(c1)/C(=C/c1cc3c([nH]1)CCCC3)C(=O)N2 [SU6656] (first compound 0.05 µM, partner dose 2 µM) | 88.2
3 | COc1cc2c(Oc3ccc4[nH]c(C)cc4c3F)ncnc2cc1OCCCN1CCCC1 [cediranib] + COc1ccc(COc2ccc(Cc3cnc(N)nc3N)cc2OC)cc1 [GW2580] (first compound 2 µM, partner dose 5 µM) | 91.5
4 | CCCCCCCCc1ccc(CCC(N)(CO)CO)cc1 [fingolimod] + OCCn1cc(-c2cnc3nnn(Cc4ccc5ncccc5c4)c3n2)cn1 [PF04217903] (first compound 10 µM, partner dose 5 µM) | 23.6
5 | NC(=O)c1ccc(N(C(N)=O)c2c(F)cccc2F)nc1-c1ccc(F)cc1F + Clc1ccc(Nc2nnc(Cc3ccncc3)c3ccccc23)cc1 [vatalanib] (first compound 2 µM, partner dose 10 µM) | 103
6 | CCc1ccc(CCOc2ccc(CC3SC(=O)NC3=O)cc2)nc1 (centres undefined) [pioglitazone] + CC(C)CCN1c2nc(Nc3cc(F)c(O)c(F)c3)ncc2N(C)C(=O)C1C [BID1870] (first compound 10 µM, partner dose 1 µM) | 79.2
7 | Cc1ccc(NC(=O)c2cccc(N(C)C)c2)cc1NC(=O)c1ccc(O)cc1 + CN(C)S(=O)(=O)c1ccc2c(c1)/C(=C/c1cc3c([nH]1)CCCC3)C(=O)N2 [SU6656] (first compound 10 µM, partner dose 2 µM) | 72.5
8 | NC(=O)c1ccc(N(C(N)=O)c2c(F)cccc2F)nc1-c1ccc(F)cc1F + Cc1cc(N2CCOCC2)cc2[nH]c(-c3c(NC[C@@H](O)c4cccc(Cl)c4)cc[nH]c3=O)nc12 [BMS536924] (first compound 2 µM, partner dose 1 µM) | 78.7
9 | Cc1ccc(NC(=O)c2cccc(N(C)C)c2)cc1NC(=O)c1ccc(O)cc1 + CCCCCCCCCCCC1=C(O)C(=O)C=C(O)C1=O [Embelin] (first compound 10 µM, partner dose 6 µM) | 87.1
10 | CN(NC(=O)CC(=O)NN(C)C(=S)c1ccccc1)C(=S)c1ccccc1 + Cn1cc(/C=C2\C(=O)Nc3cccnc32)c2ccccc21 [GW441756] (first compound 0.03 µM, partner dose 2 µM) | 73.6
11 | CCCCCCCCc1ccc(CCC(N)(CO)CO)cc1 [fingolimod] + O=C(O)[C@@H]1[O][Sb](=[O])([O][Sb]2(=[O])[O][C@H]([C@H](O)CO)[C@H](O)[C@H](C(=O)O)[O]2)[O][C@H]([C@H](O)CO)[C@@H]1O [stibogluconate] (first compound 10 µM, partner dose 10 µM) | 60.8
12 | Cc1ccc(NC(=O)c2cccc(N(C)C)c2)cc1NC(=O)c1ccc(O)cc1 + COc1cc(N2CCC(N3CCN(C)CC3)CC2)ccc1Nc1ncc(Cl)c(Nc2ccccc2S(=O)(=O)C(C)C)n1 [NVP-TAE684] (first compound 10 µM, partner dose 0.4 µM) | 46.9
13 | COc1cc2c(Oc3ccc4[nH]c(C)cc4c3F)ncnc2cc1OCCCN1CCCC1 [cediranib] + COc1cc(N2CCC(N3CCN(C)CC3)CC2)ccc1Nc1ncc(Cl)c(Nc2ccccc2S(=O)(=O)C(C)C)n1 [NVP-TAE684] (first compound 2 µM, partner dose 0.4 µM) | 63.2
14 | COc1cc2c(Oc3ccc4[nH]c(C)cc4c3F)ncnc2cc1OCCCN1CCCC1 [cediranib] + Cn1cc(/C=C2\C(=O)Nc3cccnc32)c2ccccc21 [GW441756] (first compound 2 µM, partner dose 2 µM) | 99.2
15 | COc1cc2c(Oc3ccc4[nH]c(C)cc4c3F)ncnc2cc1OCCCN1CCCC1 [cediranib] + Oc1cc(-c2nc(-c3ccccc3)[nH]c2-c2ccncc2)ccc1Cl [L779450] (first compound 2 µM, partner dose 1 µM) | 24
16 | NC(=O)c1ccc(N(C(N)=O)c2c(F)cccc2F)nc1-c1ccc(F)cc1F + Cc1nc(Nc2ncc(C(=O)Nc3c(C)cccc3Cl)s2)cc(N2CCN(CCO)CC2)n1 [dasatanib] (first compound 2 µM, partner dose 0.02 µM) | 79.5
17 | CC(C)(C)c1cnc(CSc2cnc(NC(=O)C3CCNCC3)s2)o1 + c1cc(-c2cnn3cc(-c4ccc(OCCN5CCCCC5)cc4)cnc23)ccn1 [Dorsomorphin] (first compound 0.05 µM, partner dose 2 µM) | 7.49

Row | Compound | cell count [%]
18 | CC(C)(C)c1cnc(CSc2cnc(NC(=O)C3CCNCC3)s2)o1 + C[C@@H]1CCN(C(=O)CC#N)C[C@@H]1N(C)c1ncnc2[nH]ccc12 [CP690550] (first compound 0.05 µM, partner dose 5 µM) | 75.7
19 | CC(C)(C)c1cnc(CSc2cnc(NC(=O)C3CCNCC3)s2)o1 + Oc1nc(-c2ccc(C(F)(F)F)cc2)nc2c1CSCC2 [XAV939] (first compound 0.05 µM, partner dose 10 µM) | 83.3
20 | NC(=O)c1ccc(N(C(N)=O)c2c(F)cccc2F)nc1-c1ccc(F)cc1F + C=C(c1ccc(C(=O)O)cc1)c1cc2c(cc1C)C(C)(C)CCC2(C)C [Bexarotene] (first compound 2 µM, partner dose 10 µM) | 95.5
21 | CCc1ccc(CCOc2ccc(CC3SC(=O)NC3=O)cc2)nc1 (centres undefined) [pioglitazone] + N#Cc1c(O)c2c(-c3ccc(-c4ccccc4O)cc3)csc2[nH]c1=O [A769662] (first compound 10 µM, partner dose 10 µM) | 89.3
22 | CC(C)(C)c1cnc(CSc2cnc(NC(=O)C3CCNCC3)s2)o1 + Cc1cc([N+](=O)[O-])ccc1NS(=O)(=O)c1cc(Cl)ccc1Cl [FH535] (first compound 0.05 µM, partner dose 5 µM) | 69.5
23 | NC(=O)c1ccc(N(C(N)=O)c2c(F)cccc2F)nc1-c1ccc(F)cc1F + CN(c1ncccc1CNc1nc(Nc2ccc3c(c2)CC(=O)N3)ncc1C(F)(F)F)S(C)(=O)=O [PF562271] (first compound 2 µM, partner dose 0.4 µM) | 62.7
24 | Cc1ccc(NC(=O)c2cccc(N(C)C)c2)cc1NC(=O)c1ccc(O)cc1 + Cc1cc(N2CCOCC2)cc2[nH]c(-c3c(NC[C@@H](O)c4cccc(Cl)c4)cc[nH]c3=O)nc12 [BMS536924] (first compound 10 µM, partner dose 1 µM) | 49.8
25 | Cc1ccc(NC(=O)c2cccc(N(C)C)c2)cc1NC(=O)c1ccc(O)cc1 + Cn1cc(/C=C2\C(=O)Nc3cccnc32)c2ccccc21 [GW441756] (first compound 10 µM, partner dose 2 µM) | 90.4
26 | CC(C)(C)c1cnc(CSc2cnc(NC(=O)C3CCNCC3)s2)o1 + OCCn1cc(-c2cnc3nnn(Cc4ccc5ncccc5c4)c3n2)cn1 [PF04217903] (first compound 0.05 µM, partner dose 5 µM) | 71.6
27 | NC(=O)c1ccc(N(C(N)=O)c2c(F)cccc2F)nc1-c1ccc(F)cc1F + CCCCCCCCc1ccc(CCC(N)(CO)CO)cc1 [fingolimod] (first compound 2 µM, partner dose 10 µM) | 0.31
28 | NC(=O)c1ccc(N(C(N)=O)c2c(F)cccc2F)nc1-c1ccc(F)cc1F + C[C@@H](Oc1cc(-c2cnn(C3CCNCC3)c2)cnc1N)c1c(Cl)ccc(F)c1Cl [Crizotinib] (first compound 2 µM, partner dose 1 µM) | 77.8
29 | CCCCCCCCc1ccc(CCC(N)(CO)CO)cc1 [fingolimod] + C=C(c1ccc(C(=O)O)cc1)c1cc2c(cc1C)C(C)(C)CCC2(C)C [Bexarotene] (first compound 10 µM, partner dose 10 µM) | 0.114
30 | NC(=O)c1ccc(N(C(N)=O)c2c(F)cccc2F)nc1-c1ccc(F)cc1F + O=C(O)c1ccc(-c2c[nH]c3ncc(-c4ccccc4)cc23)cc1C1CCCC1 [GSK650394] (first compound 2 µM, partner dose 0.8 µM) | 81
31 | CCCCCCCCc1ccc(CCC(N)(CO)CO)cc1 [fingolimod] + CS(=O)(=O)CCNCc1ccc(-c2ccc3ncnc(Nc4ccc(OCc5cccc(F)c5)c(Cl)c4)c3c2)o1 [lapatinib] (first compound 10 µM, partner dose 4 µM) | 0.356
32 | CC(C)(C)c1cnc(CSc2cnc(NC(=O)C3CCNCC3)s2)o1 + CN(NC(=O)CC(=O)NN(C)C(=S)c1ccccc1)C(=S)c1ccccc1 [STA4783] (first compound 0.05 µM, partner dose 0.03 µM) | 25.6
33 | CCCCCCCCc1ccc(CCC(N)(CO)CO)cc1 [fingolimod] + COc1ccc(Cl)c(Nc2nc3ccccc3nc2NS(=O)(=O)c2cccc(NC(=O)C(C)(C)N)c2)c1 [XL147] (first compound 10 µM, partner dose 4 µM) | 13.5
34 | CCCCCCCCc1ccc(CCC(N)(CO)CO)cc1 [fingolimod] + C[C@@H]1CCN(C(=O)CC#N)C[C@@H]1N(C)c1ncnc2[nH]ccc12 [CP690550] (first compound 10 µM, partner dose 5 µM) | 1.72
